# Measurements taken from the supplement of paper PMC8728848.
# The other results are listed elsewhere or left out.
# B1: Cohesin-hDC-ASGPR (Homo sapiens) (protein)
# chain: LDDLDAVRIKVDTVNAKPGDTVRIPVRFSGIPSKGIANCDFVYSYDPNVLEIIEIEPGDIIVDPNPDKSFDTAVYPDRKIIVFLFAEDSGTGAYAITKDGVFATIVAKVKEGAPNGLSVIKFVEVGGFANNDLVEQKTQFFDGGANVGDTTEPATPTTPVTTPTTTDDLDAASQNSKFQRDLVTLRTDFSNFTSNTVAEIQALTSQGSSLEETIASLKAEVEGFKQERQAGVSELQEHTTQKAHLGHCPHCPSVCVPVHSEMLLRVQQLVQDLKKLTCQVATLNNNASTEGTCCPVNWVEHQDSCYWFSHSGMSWAEAEKYCQLKNAHLVVINSREEQNFVQKYLGSAYTWMGLSDPEGAWKWVDGTDYATGFQNWKPGQPDDWQGHGLGGGEDCAHFHPDGRWNDDVCQRPYHWVCEAGLGQTSQESHHHHHH
# Tests used:
# [1] = molecular target: Neu5Gc(a2-8)Neu5Gc(a2-6)Gal(b1-4)GlcNAc; assay: glycan array binding signal (z-score within array); higher = stronger binding; conditions: glycan notation: IUPAC condensed, linker removed
# Procedure, shortened: (§1)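 Glycan array binding is given as a within-array Z-score, which can be read as non-binding when negative. The arrays, 3228 of them, came from the Consortium for Functional Glycomics database and were retained only where the protein sequence was available. Z-scores were averaged across arrays of the same protein sequence at different concentrations or buffers and across linkers.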
# [2] = molecular target: Neu5Gc(b2-6)Gal(b1-4)GlcNAc; assay: as above; conditions: glycan notation: IUPAC condensed, linker removed
# Procedure, shortened: as §1
binder,measurement,setting,value
B1,glycan array binding signal (z-score),[1],-0.501
same,glycan array binding signal (z-score),[2],-0.499
